From article PMC4336329 (PLoS ONE, 2015)
The whole screen tested about 310,000 compounds, of which about 2,200 (0.71%) showed an effect of 50% or more. The effect is printed as a negative number. This is one part of the list.

molecular target: human ether-à-go-go-related gene (hERG) potassium channel (human, UniProt Q12809); assay: primary screen, population patch clamp on CHO cells stably expressing hERG
Sequence (Q12809 whole entry, looked up): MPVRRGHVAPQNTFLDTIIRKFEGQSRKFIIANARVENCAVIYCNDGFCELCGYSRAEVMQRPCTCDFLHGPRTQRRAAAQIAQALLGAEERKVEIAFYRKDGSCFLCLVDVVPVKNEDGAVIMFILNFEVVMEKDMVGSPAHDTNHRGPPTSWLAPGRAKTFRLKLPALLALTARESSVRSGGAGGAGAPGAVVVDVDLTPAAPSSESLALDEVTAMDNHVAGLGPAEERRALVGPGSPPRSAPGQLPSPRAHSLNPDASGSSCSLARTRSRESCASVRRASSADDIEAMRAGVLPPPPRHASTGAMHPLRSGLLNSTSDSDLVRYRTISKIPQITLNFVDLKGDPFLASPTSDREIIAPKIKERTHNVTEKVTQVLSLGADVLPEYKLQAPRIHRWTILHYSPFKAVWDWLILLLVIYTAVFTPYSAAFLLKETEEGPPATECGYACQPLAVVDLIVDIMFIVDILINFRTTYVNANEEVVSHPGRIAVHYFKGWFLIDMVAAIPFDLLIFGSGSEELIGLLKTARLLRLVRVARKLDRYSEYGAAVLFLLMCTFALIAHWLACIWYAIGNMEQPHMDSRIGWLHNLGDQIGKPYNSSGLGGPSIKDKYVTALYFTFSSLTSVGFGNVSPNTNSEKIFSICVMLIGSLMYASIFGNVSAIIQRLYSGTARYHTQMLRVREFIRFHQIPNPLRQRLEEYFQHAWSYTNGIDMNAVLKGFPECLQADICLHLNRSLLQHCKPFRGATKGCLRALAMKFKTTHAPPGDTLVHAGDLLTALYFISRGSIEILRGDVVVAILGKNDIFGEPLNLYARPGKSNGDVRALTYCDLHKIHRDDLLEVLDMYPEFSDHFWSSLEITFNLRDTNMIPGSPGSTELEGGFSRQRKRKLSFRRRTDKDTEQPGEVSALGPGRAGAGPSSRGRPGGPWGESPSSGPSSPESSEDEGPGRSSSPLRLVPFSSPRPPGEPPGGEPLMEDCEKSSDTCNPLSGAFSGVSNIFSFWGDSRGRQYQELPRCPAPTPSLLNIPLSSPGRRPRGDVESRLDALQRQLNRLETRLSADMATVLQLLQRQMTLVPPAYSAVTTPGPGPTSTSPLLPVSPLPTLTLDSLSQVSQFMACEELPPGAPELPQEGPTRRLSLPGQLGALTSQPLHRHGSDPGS

SMILES | hERG current change (%, negative = inhibition) at 1uM
CCCCNC(=O)c1cc(C)nc2ccccc12 | 2.35%
CC(C)(C)c1ccc(C(=O)NC(=O)CSc2n[nH]c(N)n2)cc1 | 10.3%
COc1ccccc1C(CCNCc1ccc(N(C)C)cc1)c1ccc(OC(C)C)cc1 (stereo not drawn) | -3.95%
C#CCNC(=O)/C=C/c1ccc(C)cc1 | 19%
CCCOc1cccc(C2C(C(=O)c3ccco3)=C(O)C(=O)N2CCN(CC)CC)c1 (stereo not drawn) | 5.67%
CCSc1nnc(Nc2ccc(C)cc2)s1 | 11.9%
Cc1ccc(C2CC(c3ccccc3C)n3nc(N)nc3N2)cc1 (stereo not drawn) | 5.99%
O=C(CN1C(=O)c2ccccc2S1(=O)=O)Nc1ccc(S(=O)(=O)N2CCCCCC2)cc1 | 13.6%
O=C(Nc1ccc(S(=O)(=O)NC2=NCCCCC2)cc1)c1ccc2ccccc2n1 | 14.2%
CC1CCCN(C(=O)COC(=O)c2cccc(NS(=O)(=O)c3ccccc3)c2)C1 (stereo not drawn) | -0.847%
O=C(CN1CCN(S(=O)(=O)c2ccc(Br)cc2)CC1)N/N=C/c1ccc(Br)s1 | 0.52%
Cn1ncc(N)c1C(=O)Nc1cccc(C(F)(F)F)c1 | -0.822%
CC1C(=O)N2CCCc3cc(NC(=O)C(=O)NCc4ccc5c(c4)OCO5)cc1c32 (stereo not drawn) | 6.89%
COCCNC(=S)N/N=C(\C)CCc1ccc2c(c1)OCO2 | 8.01%
CC1CCCC(NC(=O)c2cn(C)c3ccc(S(=O)(=O)N4CCCC4)cc3c2=O)C1C (stereo not drawn) | -4.34%
O=S(=O)(c1ccccc1)N1CCN(C(=S)NC2CCCC2)CC1 | 10.7%
O=[N+]([O-])c1ccc(CN2CCN(c3ccc(F)cc3)CC2)o1 | 16.3%
CCCCN(C)Cc1c(C(=O)N2CCc3ccccc3C2)nc2ccc(Cl)cn12 | 2.59%
Cc1ccc2nc(SCC(=O)Nc3oc(C)c4c(C)n[nH]c(=O)c34)[nH]c2c1 | 17.8%
Cc1cc(C(=O)Nc2cnc3ccccc3c2)ccc1[N+](=O)[O-] | 13.6%
C/C(=C1\SC(N2CCOCC2)=NC1=O)c1ccccc1 | 3.48%
COc1cc(OC)cc(-c2nnc(NC(=O)CCS(=O)(=O)c3ccc(F)cc3)o2)c1 | 12.4%
CCC(C(=O)Nc1ccc2[nH]ncc2c1)c1ccccc1 (stereo not drawn) | 9.84%

SMILES | hERG current change (%, negative = inhibition) at 1uM
COc1cc(/C=C/c2nc3ccccc3c(=O)[nH]2)cc(Cl)c1O | 19.4%
COc1ccc(S(=O)(=O)N2CCC(C(=O)N3CCCC3)CC2)cc1Cl | 2.19%
COc1cc(OC)c(C2Nc3cccc4cccc(c34)N2)c(OC)c1 | 8.78%
CCOc1ccc(CCNC(=O)Cn2c(-c3nonc3N)nc3ccccc32)cc1OCC | 7.38%
Cc1cccc(/C(N)=N/OC(=O)COc2ccc(Cl)cc2)c1 | 6.96%
C=C(C)Cn1c(SCCCO)nc2c1c(=O)[nH]c(=O)n2C | 8.87%
O=C(O)c1ccc(N2C(=O)c3cccc4cccc(c34)C2=O)cc1 | 16.7%
Cc1cc(CN2CCCC(CO)(Cc3cccc(Cl)c3)C2)n[nH]1 (stereo not drawn) | -8.25%
CCNc1nc(NC(C)C)nc(N(C#N)CC(=O)OC)n1 | 8.17%
Cc1ccc(-c2cc(C(=O)NNC(=O)c3csc(N4CCOCC4)n3)c3ccccc3n2)cc1 | 14.1%
CC(C)c1ccc(C(=O)NC(=S)NCc2cccnc2)cc1 | 5.56%
COC(=O)c1ccc2c(c1)N(C)CCS2 | 8.41%
O=C(NCCCN1CCCCC1)c1ccc2c(c1)NC(=O)C(N1CCOCC1)S2 (stereo not drawn) | 8.02%
COc1ccccc1CNC(=O)c1cc2c(C)nn(Cc3ccc(F)cc3)c2s1 | 2.55%
CC(C)Sc1ccccc1C(=O)Nc1ccc2c(c1)n(C)c(=O)n2C | 15.1%
CCNC(=S)N1CCN(C(c2ccccc2)c2ccccc2)CC1 | 11.1%
CCOC(=O)NC(=O)CSc1cc(C)c2cc(C)cc(C)c2n1 | 13.2%
COCCNC(=O)CN(c1cccc(OC)c1)S(=O)(=O)c1ccc(C)cc1 | 1.78%
CCOc1ccc(OCCOCCN2CCc3ccccc3C2)cc1 | -35.4%
CS(=O)(=O)N1CCN(c2ccc(NC(=O)c3cc4ccccc4o3)cc2)CC1 | 11.9%
O=[N+]([O-])c1ccc(N/N=C/c2ccccc2O)cc1 | 13%
COC(OC)c1ccnc(SCc2ccccc2Cl)n1 | 0.772%
CCN1C(=O)CC(N2CCC(C(=O)OC)CC2)C1=O (stereo not drawn) | 13.7%

SMILES | hERG current change (%, negative = inhibition) at 1uM
CC(C)c1ccc(/C=C/C(=O)N2CCCCCC2)cc1 | -0.9%
CSc1nc2sc3c(c2c2nnnn12)CCCC3 | 12.7%
O=C(NCc1ccc2c(c1)OCO2)C1CCCCC1 | 4.95%
COc1cc(/C=C2\S/C(=N/S(=O)(=O)c3ccccc3)NC2=O)c([N+](=O)[O-])cc1OC | 9%
Cc1cc2ccccc2nc1SCC(=O)NC1CCCCC1 | 10.2%
CCN(CC(=O)Nc1ccc([N+](=O)[O-])cc1OC)c1ccccc1 | -2.55%
O=C(Nc1cccc(F)c1)c1ccccc1-c1ccccc1 | -5.75%
O=c1ccnc(NCCc2ccccc2)[nH]1 | 19.5%
CCOC(=O)/C(=N/Nc1ccccc1)N1CCCc2ccccc21 | 5.43%
O=C(Cc1ccc(Cl)cc1)Nc1ccc(-c2cc3ccccc3oc2=O)c(Cl)c1 | -0.941%
COCCOC(=O)C1=C(C)NC2=C(C(=O)CCC2)C1c1ccc2c(c1)OCO2 (stereo not drawn) | 3.71%
O=C(NCc1ccccc1)C1Cc2ccccc2CN1C(=O)c1ccco1 (stereo not drawn) | 7.78%
Cc1ccccc1NC(=O)c1cc(S(=O)(=O)N2CCOCC2)ccc1F | 9.74%
CCN(CC)S(=O)(=O)c1ccc(Cl)c(C(=O)NC2CCN(Cc3ccccc3)CC2)c1.Cl | 7.64%
CO/N=C/c1ccc(N2CCCC2)c([N+](=O)[O-])c1 | 5.95%
CCOc1ccc(C(=O)Nc2ccc(N3CCN(S(C)(=O)=O)CC3)cc2)cc1[N+](=O)[O-] | 9.17%
COc1cc(/C=N/NC(=O)c2ccncc2)ccc1O.O | 16.7%
CC1(C)CC(=O)C=C(c2cccc(Br)c2)C1 | 13.5%
Cc1ccc(-n2cnnn2)c2cccnc12 | 11.9%
CC(C)OC(=O)c1c(N)n(CCCN2CCOCC2)c2nc3ccccc3nc12 | 2.68%
COc1ccc(NC(=O)CSc2ncc(-c3ccc(F)cc3)n2Cc2ccco2)cc1 | 16.8%
CC(=O)NC(CC(=O)NCCOc1ccccc1F)c1ccccc1 (stereo not drawn) | 13.8%
CC(C)Oc1ccc(C(=O)O)cc1 | 14.1%

SMILES | hERG current change (%, negative = inhibition) at 1uM
COC(=O)c1c(N)sc2c1CC(C)(C)OC2 | 13.8%
COc1ccc(C(=O)NC(C)c2cc(OC)c(OC)cc2Br)cc1 (stereo not drawn) | -10.8%
O=C(O)CCN1C(=O)NC2(CCCC2)C1=O | 3.71%
CN(C)S(=O)(=O)c1cccc(NC(=O)CN(CCO)CC(=O)Nc2cccc(S(=O)(=O)N(C)C)c2)c1 | 13.6%
COc1ccc(S(=O)(=O)NCC(c2cccnc2)N2CCN(c3ccccc3)CC2)cc1C (stereo not drawn) | -1.72%
CCN(c1ccccc1)S(=O)(=O)c1nnc(NC(=O)c2ccco2)s1 | 8.17%
Cn1c(SCc2ccc([N+](=O)[O-])cc2)nnc1-c1cccnc1 | 13.2%
CC(=O)c1ncnn1CC(=O)c1ccc(Cl)cc1Cl | 8.21%
O=C(CSc1nc2cc(Cl)ccc2s1)NC(=O)NCc1ccco1 | 0.537%
CC(=O)c1c(N2CCCCC2)nc(=S)n(Cc2ccccc2)c1C | 4.19%
Cc1c(C(=O)NCc2ccccn2)sc2nc(-c3ccc(F)cc3)cn12 | -3.62%
COc1ccc(-c2cc(=O)oc3cc(OC(=O)C4CCCCC4)c(Cl)cc23)cc1 | 10.2%
Cc1cccc(C(=O)NC(=S)Nc2ccccc2C(F)(F)F)c1 | -9.39%
COCCn1c(SCC(=O)Nc2ccc(NC(C)=O)cc2)nc2c([nH]c3ccccc32)c1=O | 18.7%
CC1CCN(CCNC(=O)c2ccc3c(=O)n(Cc4ccc(Cl)cc4)c(=S)[nH]c3c2)CC1 | 11.1%
Cc1cc(C)n(CC(=O)NCc2ccccc2)c(=O)c1C#N | 14.5%
COc1ccc(CNC(=O)CN(Cc2ccc(Cl)cc2)S(=O)(=O)c2ccccc2)cc1 | -3.3%
Cc1ccc2c(c1)[C@@H]1CN(C)CC[C@@H]1N2C(=O)Nc1cccc(C(F)(F)F)c1 | -3.98%
CC(C)(C)C(=O)Nc1ccccc1-c1nc2ccccc2[nH]c1=O | 14.3%
CCOc1ccc(OCCC(=O)OCC(=O)NC(C)c2ccccc2)cc1 (stereo not drawn) | 13.9%
CS(=O)(=O)c1sc(C(=O)NC(=O)Nc2cccc(C(F)(F)F)c2)c2c1C=CCC2 | 10.8%
